Measured values taken from PubChem BioAssay AID1645882 (National Center for Advancing Translational Sciences (NCATS), 2021).
About 120 (0.75%) of roughly 16,000 compounds were called active. Another 4% or so got no clear call; they are omitted. Calls come from the whole dose curve; as a rule, active = well fitted inhibition curve with a large enough effect; inconclusive = small, poorly fitted or top-dose-only effect; inactive = no such curve, though single readings can be large or run the other way. This is one part of the list.

What follows are molecules tested against Rap guanine nucleotide exchange factor 3 (Homo sapiens) (UniProt O95398) (assay: Validation qHTS for antagonist of cAMP-regulated guanine nucleotide exchange factor 3 (EPAC1)). Settings: EPAC1 Rap1B-BODIPY-GDP exchange, fluorescence; activity change, negative = inhibition: at the top concentration.
Chain of UniProt O95398 (O95398 whole entry, looked up): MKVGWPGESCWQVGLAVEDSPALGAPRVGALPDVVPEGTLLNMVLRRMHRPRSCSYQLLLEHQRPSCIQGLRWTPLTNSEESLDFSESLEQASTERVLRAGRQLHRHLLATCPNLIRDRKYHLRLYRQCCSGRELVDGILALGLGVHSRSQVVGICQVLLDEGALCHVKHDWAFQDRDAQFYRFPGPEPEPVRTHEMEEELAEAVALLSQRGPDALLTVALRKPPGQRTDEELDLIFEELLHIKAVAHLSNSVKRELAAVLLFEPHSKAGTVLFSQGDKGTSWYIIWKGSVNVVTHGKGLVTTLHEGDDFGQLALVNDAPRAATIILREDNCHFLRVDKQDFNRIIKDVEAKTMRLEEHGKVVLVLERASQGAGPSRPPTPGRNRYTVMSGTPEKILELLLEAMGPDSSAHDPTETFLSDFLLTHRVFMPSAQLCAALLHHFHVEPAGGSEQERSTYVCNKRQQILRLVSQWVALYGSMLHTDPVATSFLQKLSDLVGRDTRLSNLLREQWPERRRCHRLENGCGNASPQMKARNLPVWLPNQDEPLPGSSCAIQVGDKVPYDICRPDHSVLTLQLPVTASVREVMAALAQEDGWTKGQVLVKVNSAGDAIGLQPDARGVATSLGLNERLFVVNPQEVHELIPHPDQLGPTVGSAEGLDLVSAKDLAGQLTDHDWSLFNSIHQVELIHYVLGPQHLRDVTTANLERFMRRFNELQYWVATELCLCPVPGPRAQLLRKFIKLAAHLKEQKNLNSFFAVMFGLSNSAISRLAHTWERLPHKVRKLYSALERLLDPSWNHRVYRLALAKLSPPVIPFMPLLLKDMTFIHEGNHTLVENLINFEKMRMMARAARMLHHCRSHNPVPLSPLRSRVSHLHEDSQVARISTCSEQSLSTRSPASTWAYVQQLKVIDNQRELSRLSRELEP
Outline: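 EPAC1 (100 nM) mixed with 250 nM RAP1B-BODIPY-GDP and 50 uM GDP; compounds in concentration series, 5 min at room temperature. Fluorescence (ex 480/em 540 nm) read every 5 min for 30 min; normalized to ATA control and DMSO.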
Note: nearly all actives have a fitted effect of over 75% in size.
Potency is the fitted concentration of half-maximal effect.
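Throughout, for activity change, negative = inhibition: plate controls were DMSO for no effect and ATA control for full effect.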

Compound | activity change, negative = inhibition | Potency
CC(CCc1ccccc1)NC(C)C(O)c1ccc(O)cc1 (configuration not stated) | inactive | 
OCCCBr | inactive: 101% [at 320 µM] | 
CCC(=O)O[C@]1(c2ccccc2)CCN(C)C[C@H]1C | inactive: 1.01% | 
Cc1o[nH]c(=O)c1C[C@@H](N)C(=O)O | inactive: 11.7% | 
NC(=NCCC[C@H](N)C(=O)O)N[N+](=O)[O-] | inactive | 
Cc1c(C(=O)c2cccc3ccccc23)c2cccc3c2n1[C@H](CN1CCOCC1)CO3 | inactive | 
CCCN(C/C=C/I)C1CCc2ccc(O)cc2C1 (configuration not stated) | inactive: 1.56% | 
O=Cc1ccccc1 | inactive | 
N=C(N)c1ccc(CS(=O)(=O)F)cc1 | inactive: -0.822% [at 75.8 µM] | 
COP(=S)(OC)Oc1ccc([N+](=O)[O-])cc1 | inactive: -18.7% | 
O=c1oc2ccccc2c(O)c1C(CC(O)c1ccc(-c2ccc(Br)cc2)cc1)c1ccccc1 (configuration not stated) |  | active: 100 µM
C=C(C)c1cc2cc(C(C)=O)c(O)cc2o1 | inactive | 
CN1[C@H]2CC[C@@H]1[C@@H](C(=O)O)[C@@H](OC(=O)c1ccccc1)C2 | inactive | 
CC(=O)O[C@@H]1C[C@@]2(C)C(c3ccoc3)C[C@H]3O[C@]32[C@]2(C)C(=O)C(O)=C3C(C)(C)C(=O)C=C[C@]3(C)C12 (some centres not stated) | inactive: -12% | 
Cc1cc(OC(=O)N2CCCCC2)c(C(C)C)cc1[N+](C)(C)C | inactive: -2.75% | 
CC(C)OC(=O)Nc1cccc(Cl)c1 | inactive: 4.03% | 
c1ccc2nc(N3CCNCC3)ccc2c1 | inactive | 
C=C[C@H]1CN2CCC1C[C@@H]2C(O)c1ccnc2ccccc12 (some centres not stated) | inactive: 4.58% | 
C[C@@H](N)C(=O)c1ccccc1 | inactive: 19.2% [at 320 µM] | 
F/C(COc1ccc2c(c1)[nH]c1ccccc12)=C1/CN2CCC1CC2 | inactive: 18.6% | 
O=C1NCN(c2ccccc2)C12CCN(CC1COc3ccccc3O1)CC2 (configuration not stated) | inactive | 
O=C(Oc1ccccc1)N1CCC2(CCN(Cc3ccncc3)CC2)CC1 | inactive: 4.81% | 
COc1c2c(cc3c1OCO3)C13C=CC(OC)CC1N(C2)CC3O (configuration not stated) | inactive: -3.37% | 
ClC1=C(Cl)C2(Cl)C3C(Cl)C=CC3C1(Cl)C2(Cl)Cl (configuration not stated) | inactive: 10.3% | 
O=C1CC2OCC=C3CN4CC[C@]56c7ccccc7N1[C@H]5[C@H]2C3C[C@H]46 (some centres not stated) | inactive: 17.3% | 
O=c1cccc2n1CC1CNCC2C1 (configuration not stated) | inactive | 

Compound | activity change, negative = inhibition | Potency
Oc1ccc2c3c1O[C@H]1c4[nH]c5ccccc5c4C[C@@]4(O)C(C2)N(CC2CC2)CCC314 (some centres not stated) | inactive | 
Cc1ccc2c(c1)C1CN(C)CCC1N2 (configuration not stated) | inactive: 11.8% | 
CC(N)Cc1c[nH]c2ccc(OCc3cccs3)cc12 (configuration not stated) | inactive | 
C[C@@H]1C[C@@H](O)[C@@]2(O)[C@]13CC(=O)OC[C@]2(C)[C@@](C)(O)C(=O)C3 | inactive: 14% | 
Oc1cccc[c]1[Hg][Cl] | inactive: 10.7% | 
O=C1C=C2C=C[C@@H]3C[C@@]2(O1)[C@H]1CCCCN31 | inactive | 
CCC(=O)OC1(c2ccccc2)CCN(C)CC1 | inactive: 0.342% [at 320 µM] | 
N#Cc1c(Cl)cccc1Cl | inactive: 7.03% | 
CN1CCC(c2c[nH]c3ccc(O)cc23)CC1 | inactive | 
CC(C)[C@@]1(NC(=O)[C@@H]2C[C@@H]3c4cccc5[nH]cc(c45)C[C@H]3N(C)C2)O[C@@]2(O)[C@@H]3CCCN3C(=O)[C@H](Cc3ccccc3)N2C1=O | inactive | 
CC(C)[C@H](NC(=O)[C@H](CCC(=O)O)NC(=O)[C@H](Cc1ccccc1)NC(=O)[C@H](C)NC(=O)[C@@H](N)Cc1ccc(O)cc1)C(=O)N[C@H](C(=O)NCC(N)=O)C(C)C | inactive: 13.6% [at 15.3 µM] | 
CCN[C@@H](C)Cc1cccc(C(F)(F)F)c1 | inactive: 27.5% [at 320 µM] | 
CCCCCCCCCCCCCCCCOC[C@H](COP(=O)([O-])OCC[N+](C)(C)C)OC(C)=O | inactive: 13.2% [at 15.3 µM] | 
CC1(C)C(O)CC(=O)[C@]2(C)C1CC(=O)[C@]1(C)C2CC[C@@]2(C)C(c3ccoc3)OC(=O)C3O[C@@]321 (some centres not stated) | inactive: -4.56% | 
CCN1C[C@@]2(COC(=O)c3ccccc3N3C(=O)CC(C)C3=O)CC[C@H](OC)[C@]34C5C[C@@H]6[C@@H](OC)C[C@@](O)(C5[C@H]6OC)[C@@](O)(C13)[C@@H](OC)C24 (some centres not stated) | inactive: 10.8% | 
NCCc1cccc(O)c1 | inactive | 
O=C(O)C(Cl)(Cl)Cl | inactive: 6.38% | 
CC(C)Nc1ccc(Nc2ccccc2)cc1 | inactive: 5.35% | 
O[C@H]1[C@H]2[C@H](O)CCCN2C[C@H]1O | inactive: 21.7% | 
CNC(=O)NC(O)C(Cl)(Cl)Cl (configuration not stated) | inactive: 9.2% | 
O=c1ccc2c(O)c3ccoc3cc2o1 | inactive: 0.468% | 
O=C(Oc1ccccc1)N1CCC[C@@]2(CCN(Cc3nccs3)C2)C1 | inactive: 14.1% | 
Oc1ccc(-c2cccnc2)cc1CNC1CN2CCC1CC2 (configuration not stated) | inactive: 2.3% | 
NC(=O)CN1CC(O)CC1=O (configuration not stated) | inactive | 
CCOC(=O)NC(C)(C)Cc1ccc(Cl)cc1 | inactive: 11.5% | 
C[C@]12CCC(=O)C[C@@H]1CC[C@@H]1[C@@H]2CC[C@@]2(C)[C@H]1CC[C@]2(C)O | inactive: 34.3% | 
